From paper PMC11039692, “SRY-Box transcription factor 9 triggers YAP nuclear entry via direct interaction in tumors” (Signal Transduction and Targeted Therapy, 2024) come the findings set out here.

Amino acid sequences for entries named in this document (tags omitted). A change or cut given only in a name is not applied to a line headed by its entry. Chains listed by the source or under a name are the forms on record and can include a tag or linker. Residues count along the entry.
UniProt Q15561: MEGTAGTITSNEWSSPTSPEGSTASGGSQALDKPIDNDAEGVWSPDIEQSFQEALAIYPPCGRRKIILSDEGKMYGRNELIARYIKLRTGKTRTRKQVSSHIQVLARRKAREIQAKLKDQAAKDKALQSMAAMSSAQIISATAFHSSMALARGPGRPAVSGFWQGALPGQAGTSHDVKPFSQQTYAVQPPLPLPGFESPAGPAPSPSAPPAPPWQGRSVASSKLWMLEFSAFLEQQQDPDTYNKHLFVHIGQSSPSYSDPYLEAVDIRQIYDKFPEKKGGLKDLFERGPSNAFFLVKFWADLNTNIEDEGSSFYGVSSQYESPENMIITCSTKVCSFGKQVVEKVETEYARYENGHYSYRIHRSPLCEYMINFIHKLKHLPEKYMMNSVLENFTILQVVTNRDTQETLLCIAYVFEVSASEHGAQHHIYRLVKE
UniProt P48436: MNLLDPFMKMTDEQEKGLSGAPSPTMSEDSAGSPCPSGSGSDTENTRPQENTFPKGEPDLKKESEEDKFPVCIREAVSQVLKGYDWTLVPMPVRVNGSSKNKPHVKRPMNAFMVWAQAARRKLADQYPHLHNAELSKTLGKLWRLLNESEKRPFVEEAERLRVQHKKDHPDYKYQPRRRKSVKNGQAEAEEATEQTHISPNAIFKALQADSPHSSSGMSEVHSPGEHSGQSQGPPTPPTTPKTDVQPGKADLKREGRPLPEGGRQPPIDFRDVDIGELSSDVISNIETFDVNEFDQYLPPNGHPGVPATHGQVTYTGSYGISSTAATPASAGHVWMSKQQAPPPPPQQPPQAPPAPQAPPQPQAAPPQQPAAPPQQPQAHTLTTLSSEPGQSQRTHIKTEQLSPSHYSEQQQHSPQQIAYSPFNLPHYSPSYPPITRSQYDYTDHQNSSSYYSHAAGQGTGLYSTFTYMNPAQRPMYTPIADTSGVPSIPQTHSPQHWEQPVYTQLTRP
SOX9-HMG domain (aa 98–181): residues 98-181 of P48436
Pep-S-A1 (cell-penetrating peptide Pep, di-glycine linker, S-A1) (P48436, form named): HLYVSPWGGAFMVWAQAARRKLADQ
FLAG-SOX9 Δ176–210 (P48436, form named): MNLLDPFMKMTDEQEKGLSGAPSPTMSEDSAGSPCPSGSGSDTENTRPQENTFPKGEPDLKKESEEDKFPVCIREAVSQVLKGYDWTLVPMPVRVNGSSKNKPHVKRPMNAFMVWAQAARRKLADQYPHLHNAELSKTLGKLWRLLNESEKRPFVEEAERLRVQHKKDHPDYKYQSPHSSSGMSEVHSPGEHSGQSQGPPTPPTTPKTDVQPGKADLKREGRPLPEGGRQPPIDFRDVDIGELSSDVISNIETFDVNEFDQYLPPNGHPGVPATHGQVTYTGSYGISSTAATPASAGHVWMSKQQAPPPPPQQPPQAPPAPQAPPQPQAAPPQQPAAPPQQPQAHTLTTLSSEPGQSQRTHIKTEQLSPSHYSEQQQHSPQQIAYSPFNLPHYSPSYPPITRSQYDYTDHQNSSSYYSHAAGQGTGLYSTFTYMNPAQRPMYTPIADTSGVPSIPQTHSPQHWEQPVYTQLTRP
UniProt Q99873: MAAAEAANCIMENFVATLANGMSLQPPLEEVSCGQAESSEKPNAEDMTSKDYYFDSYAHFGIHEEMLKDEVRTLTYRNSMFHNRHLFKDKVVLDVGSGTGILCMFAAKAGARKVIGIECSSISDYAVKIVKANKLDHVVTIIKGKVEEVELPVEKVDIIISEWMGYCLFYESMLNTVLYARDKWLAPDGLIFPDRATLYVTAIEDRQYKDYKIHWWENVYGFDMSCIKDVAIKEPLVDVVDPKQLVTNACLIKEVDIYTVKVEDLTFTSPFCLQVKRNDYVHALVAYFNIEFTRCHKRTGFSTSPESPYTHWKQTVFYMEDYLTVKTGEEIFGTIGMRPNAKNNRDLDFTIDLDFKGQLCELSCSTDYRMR

Results are given in words; binding and its absence hold for the method and conditions named. For some of these results: In cells and extracts the contact can be indirect. Some results given as binding are weak or reduced against the parent protein; the word gives no strength.

Assay [1] concerns the target Yes-associated protein (YAP), endogenous (human (endogenous in Huh-7)) (UniProt P46937). Kind of assay: proximity ligation; Duolink PLA with antibodies against SOX9 and YAP in Huh-7 cells with DOX-inducible mCherry-SOX9; DOX 1 μg/mL, cells fixed after DOX induction.
Assay [2] has the same target. Kind of assay: proximity ligation; PLA of exogenous SOX9 or its Δ94–126 deletion with YAP in cells (supplementary Fig. 4c).
Assay [3] addresses V5-YAP (human) (UniProt P46937). Kind of assay: co-IP; reciprocal: Huh-7 cells co-transfected with V5-YAP and FLAG-tagged SOX9 or mutants; immunoprecipitation with anti-FLAG beads or anti-V5 beads, immunoblot. In general terms: In western blotting, separated proteins are transferred to a membrane and probed.
In assay [4] the target is Yes-associated protein (YAP), endogenous (human (endogenous in Huh-7)) (UniProt P46937). As to the kind of experiment: co-IP; immunoprecipitation with YAP antibody, immunoblot for PRMT1.
Assay [5] concerns the target V5-YAP (human) (UniProt P46937). Kind of assay: co-IP; V5-IP from extracts of Huh-7 cells treated with Pep-peptides at the indicated concentrations for 24 h, immunoblot with SOX9 antibody; synthetic peptide added to cells as competitor; only the binder purified.
The target of assay [6] is Yes-associated protein (YAP), endogenous (human (endogenous in Huh-7)) (UniProt P46937). Kind of assay: proximity ligation; PLA of YAP and SOX9 in HCC cells treated with Pep-peptides (supplementary Fig. 8a, b); synthetic peptide added to cells as competitor; only the binder purified.
The target in another assay is V5-YAP S127A (human) (UniProt P46937). As to the kind of experiment: co-IP; anti-V5 beads, extracts of Huh-7 cells transfected with V5-tagged YAP or mutants, immunoblot for SOX9; also with siPRMT1 co-transfected (interaction reduced).
Assay [7] addresses V5-YAP (human) (UniProt P46937). The assay is described as above.
Assay [8] has the same target. Kind of assay: co-IP; V5-IP from extracts of Huh-7 cells treated with Pep-peptides at the indicated concentrations for 24 h, immunoblot with SOX9 antibody; the pair that is blocked.
Assay [9] addresses Yes-associated protein (YAP), endogenous (human (endogenous in Huh-7)) (UniProt P46937). Kind of assay: proximity ligation; PLA of YAP and SOX9 in HCC cells treated with Pep-peptides (supplementary Fig. 8a, b); the pair that is blocked.
The target of assay [10] is TEAD4, endogenous (human (endogenous in Huh-7)) (UniProt Q15561). As to the kind of experiment: co-IP; extracts from Huh-7 cells, endogenous proteins.
In assay [11] the target is Yes-associated protein (YAP), endogenous (human (endogenous in Huh-7)) (UniProt P46937). The assay is described as above.
Assay [12] shares this target. Kind of assay: proximity ligation; Duolink PLA with antibodies against SOX9 and YAP in fixed HEK-293A cells and various tumor cells, endogenous proteins.
Assay [13] addresses SRY-Box transcription factor 9 (SOX9), endogenous (human (endogenous in Huh-7)) (UniProt P48436). Kind of assay: co-IP; extracts from Huh-7 cells, endogenous proteins.
The target in assay [14] is SOX9-HMG domain (aa 98–181) (UniProt P48436). As to the kind of experiment: MST; SOX9-HMG domain labelled with 25 nM RED-tris-NTA 2nd Generation dye, YAP peptide (aa 115–135) serially diluted; 50 mM Tris-HCl pH 7.4, 150 mM NaCl, 0.05% Tween-20; room temperature; both purified.
The next assay has as its target FLAG-SOX9 (UniProt P48436). Kind of assay: co-IP; FLAG-IP from extracts of Huh-7 cells transfected with FLAG-SOX9 or its truncations, immunoblot for YAP.
A further assay concerns the target FLAG-SOX9 Δ176–210 (UniProt P48436). The assay is described as above.
In assay [15] the target is Yes-associated protein (YAP), endogenous (human (endogenous in Huh-7)) (UniProt P46937). As to the kind of experiment: co-IP; cytoplasmic and nuclear protein fractions of Huh-7 cells transiently transfected with SOX9, over time.
The target of assay [16] is FLAG-YAP protein purified from SF9 (human) (UniProt P46937). Kind of assay: pull-down; 20 μM FLAG-YAP with 20 μM GST-SOX9 in the presence of FLAG beads overnight at 4 °C; washes in 20 mM Tris pH 8.0, 150 mM NaCl, 0.5% NP40, 0.5% TritonX-100, 1 mM DTT, 10% glycerol and once with 250 mM NaCl; immunoblot; both purified.

“DOX-inducible mCherry-SOX9 (from UniProt P48436 1-509)”: the binding entry in assay [1] is recorded as “binds”. Regarding FLAG-SOX9 (from UniProt P48436 1-509), the binding result (in [2]; with V5-YAP (human) [3]) was “binds” in each case. As to “PRMT1 (from UniProt Q99873 1-371) (enzyme)”, the binding result in assay [4] is reported as “binds”. Take “Pep-S-A1 (cell-penetrating peptide Pep, di-glycine linker, S-A1) (from UniProt P48436 111-126)”: the binding entry (in the assay with V5-YAP (human) [5]; in [6]) was “binds” in each case.

In the case of “SRY-Box transcription factor 9 (SOX9), endogenous (from UniProt P48436 1-509)”, the binding result is reported as “binds” with V5-YAP S127A (human); “binds” in the assay with V5-YAP (human) [7]; “binds” with V5-YAP (human) [8]; “binds” in [9]; “no binding” in assay [10]; “binds” in assay [11]. Moreover, the binding result in assay [12] is reported as “binds”. For “YAP asymmetrically dimethylated at Arg-124 (YAP-R124me2a), endogenous (from UniProt P46937 1-504)”, the binding entry in assay [13] is “binds”.

On to “YAP peptide (aa 115–135) with R124K (from UniProt P46937 115-135)”, for which the binding entry in assay [14] is listed as “no binding”. For the substance “Yes-associated protein (YAP), endogenous (from UniProt P46937 1-504)”, the binding result in the assay with FLAG-SOX9 and with FLAG-SOX9 Δ176–210 was “binds” each time. In the case of “exogenous SOX9 (transiently transfected) (from UniProt P48436 1-509)”, the binding entry in assay [15] is recorded as “binds”. Take “recombinant GST-SOX9 protein (from UniProt P48436 1-509)”: the binding result in assay [16] is “binds”.
